# Measurements taken from a collection of fitness landscapes (doi:10.1016/j.celrep.2020.107928).
# Whole data set: some 81,000 sequences, median “one-hybrid fitness for binding parS DNA” near -0.17, cut for the highest 2% near 0.51. Some of the results follow.
# B1: Caulobacter ParB omega fusion; a variant is named by its letters at X, in order, B8GW30 (parent)
# chain: MESVVVGEPGMSEGRRGLGRGLSALLGEVDAAPAQAPGEQLGGSREAPIEILQRNPDQPRRTFREEDLEDLSNSIREKGVLQPILVRPSPDTAGEYQIVAGERAWRAAQRAGLKTVPIMVRELDDLAVLEIGIIENVQRADLNVLEEALSYKVLMEKFERTQENIAQTIGKSXSHVANXMRLLXLPDEVQSYLVSGELTAXHARAIAAAADPVALAKQIIEGGLSVRETEALARKAPNLSAGKSKGGRPPRVKDTDTQALESDLSSVLGLDVSIDHRGSTGTLTITYATLEQLDDLCNRLTRGI
# Variants of: B1
# Assay: one-hybrid fitness for binding parS DNA (scaled: cognate 1, non-cognate 0); higher = stronger binding
# Conditions: with parS DNA site
# Method in brief: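 Pre- and post-selection plasmids were Illumina-sequenced, three replicate libraries were pooled, and any variant with under 10 reads was removed. The libraries were Caulobacter ParB with four specificity codons randomised, selected in E. coli USO through a HIS3 reporter whose site is 19 bp from the promoter. Cells grew 48 hours at 37°C on M9 without histidine, with 0.1 mM IPTG and 5 mM 3-AT. Fitness is the log change in variant-to-wild-type read ratio, rescaled against cognate and non-cognate.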
row,Variant,one-hybrid fitness for binding parS DNA
1,RRDI,≤ 0.2
2,GIAR,≤ 0.2
3,AENT,≤ 0.2
4,TGWI,≤ 0.2
5,GFLD,≤ 0.2
6,MRSK,≤ 0.2
7,VYDH,≤ 0.2
8,RLKQ,≤ 0.2
9,DTNR,≤ 0.2
10,TYFC,≤ 0.2
11,ESDS,≤ 0.2
12,PTCR,≤ 0.2
13,SHEC,≤ 0.2
14,GERG,≤ 0.2
15,RLIT,0.795
16,LSDR,≤ 0.2
17,TPRF,≤ 0.2
18,EVKG,≤ 0.2
19,RTFL,≤ 0.2
20,YHCR,≤ 0.2
21,RLPA,0.376
22,TAMQ,≤ 0.2
23,VTVV,≤ 0.2
24,VKTK,≤ 0.2

row,Variant,one-hybrid fitness for binding parS DNA
1,TFAA,≤ 0.2
2,DDCR,≤ 0.2
3,YPVI,≤ 0.2
4,IIHY,≤ 0.2
5,TRVM,≤ 0.2
6,PNRR,≤ 0.2
7,GNKN,≤ 0.2
8,DAGR,≤ 0.2
9,DADC,≤ 0.2
10,FRKP,≤ 0.2
11,LQVT,≤ 0.2
12,QLPG,≤ 0.2
13,QTMW,≤ 0.2
14,HTRG,≤ 0.2
15,AHAA,≤ 0.2
16,IGSR,≤ 0.2
17,QLRK,≤ 0.2
18,FCLS,≤ 0.2
19,KSEV,≤ 0.2
20,CRKN,≤ 0.2
21,CAHS,≤ 0.2
22,HHHL,≤ 0.2
23,KSGC,≤ 0.2
24,GAMM,≤ 0.2

row,Variant,one-hybrid fitness for binding parS DNA
1,MNLM,≤ 0.2
2,NDDR,≤ 0.2
3,NWYC,≤ 0.2
4,INHR,≤ 0.2
5,TARA,≤ 0.2
6,NCLG,≤ 0.2
7,NQCC,≤ 0.2
8,DARL,≤ 0.2
9,WYCF,≤ 0.2
10,HQRE,≤ 0.2
11,QGCV,≤ 0.2
12,GCRS,≤ 0.2
13,QKMM,≤ 0.2
14,HAHI,≤ 0.2
15,WILQ,≤ 0.2
16,AIWR,≤ 0.2
17,PQSM,≤ 0.2
18,DDCW,≤ 0.2
19,GHAN,≤ 0.2
20,APKL,≤ 0.2
21,CCMS,≤ 0.2
22,ESHT,≤ 0.2
23,SMCV,≤ 0.2
24,TYKY,≤ 0.2

row,Variant,one-hybrid fitness for binding parS DNA
1,HMIG,≤ 0.2
2,QIVF,≤ 0.2
3,HKQG,≤ 0.2
4,AHTV,≤ 0.2
5,RWDS,0.76
6,RYGA,0.539
7,QLEP,≤ 0.2
8,TRWW,≤ 0.2
9,APWM,≤ 0.2
10,KPSK,≤ 0.2
11,YLIT,≤ 0.2
12,ARHR,≤ 0.2
13,HAFT,≤ 0.2
14,KTIR,≤ 0.2
15,QKWW,≤ 0.2
16,RMME,≤ 0.2
17,SLSA,≤ 0.2
18,CVST,≤ 0.2
19,LQLV,≤ 0.2
20,QDQD,≤ 0.2
21,GGSC,≤ 0.2
22,WIVR,≤ 0.2
23,MSTN,≤ 0.2
24,QSHY,≤ 0.2

row,Variant,one-hybrid fitness for binding parS DNA
1,RVQC,0.983
2,RFLA,0.533
3,DSKV,≤ 0.2
4,AMFG,≤ 0.2
5,RACK,≤ 0.2
6,SAIG,≤ 0.2
7,VTWW,≤ 0.2
8,QELT,≤ 0.2
9,WSTS,≤ 0.2
10,LTRH,≤ 0.2
11,AQGG,≤ 0.2
12,LDNV,≤ 0.2
13,TERC,≤ 0.2
14,ADTW,≤ 0.2
15,YVIV,≤ 0.2
16,PRPD,≤ 0.2
17,YPCT,≤ 0.2
18,SHRC,≤ 0.2
19,QRNN,≤ 0.2
20,ERNG,≤ 0.2
21,QMWI,≤ 0.2
22,MNCR,≤ 0.2
23,ATLA,≤ 0.2
24,YSMS,≤ 0.2

row,Variant,one-hybrid fitness for binding parS DNA
1,RART,0.836
2,ADKL,≤ 0.2
3,QNAF,≤ 0.2
4,HNLV,≤ 0.2
5,DEHC,≤ 0.2
6,MTSE,≤ 0.2
7,LLGH,≤ 0.2
8,SRHE,≤ 0.2
9,QEQT,≤ 0.2
10,KPVK,≤ 0.2
11,RPLR,≤ 0.2
12,PFYT,≤ 0.2
13,CCPV,≤ 0.2
14,NSPN,≤ 0.2
15,WYDR,≤ 0.2
16,SSKC,≤ 0.2
17,PTAP,≤ 0.2
18,CFGR,≤ 0.2
19,QMLA,≤ 0.2
20,DITK,≤ 0.2
21,LKMT,≤ 0.2
22,KGNF,≤ 0.2
23,LHQP,≤ 0.2
24,RQVY,0.375

row,Variant,one-hybrid fitness for binding parS DNA
1,QATK,≤ 0.2
2,RTKG,0.872
3,RMTM,0.326
4,TLMC,≤ 0.2
5,GNLC,≤ 0.2
6,FDLT,≤ 0.2
7,CTMM,≤ 0.2
8,DHRW,≤ 0.2
9,TENN,≤ 0.2
10,GTDC,≤ 0.2
11,NVIT,≤ 0.2
12,NCVL,≤ 0.2
13,MRHR,≤ 0.2
14,RCWV,≤ 0.2
15,DQAG,≤ 0.2
16,TSGL,≤ 0.2
17,PGYP,≤ 0.2
18,RMIS,0.997
19,IDSC,≤ 0.2
20,TCNM,≤ 0.2
21,WGGV,≤ 0.2
22,ITYC,≤ 0.2
23,YTTM,≤ 0.2
24,ASIF,≤ 0.2

row,Variant,one-hybrid fitness for binding parS DNA
1,VTFT,≤ 0.2
2,DLEE,≤ 0.2
3,TQLI,≤ 0.2
4,KCCR,≤ 0.2
5,TVWC,≤ 0.2
6,RCDP,0.204
7,PAYV,≤ 0.2
8,RVLH,0.229
9,ADQI,≤ 0.2
10,LFYG,≤ 0.2
11,HNFP,≤ 0.2
12,AKFG,≤ 0.2
13,FYST,≤ 0.2
14,CRGY,≤ 0.2
15,PVKL,≤ 0.2
16,MNQG,≤ 0.2
17,AYNL,≤ 0.2
18,HVQW,≤ 0.2
19,SFQC,≤ 0.2
20,AVGY,≤ 0.2
21,RRIM,≤ 0.2
22,PMIS,≤ 0.2
23,QPMI,≤ 0.2
24,TSMG,≤ 0.2

row,Variant,one-hybrid fitness for binding parS DNA
1,IGYS,≤ 0.2
2,HSMD,≤ 0.2
3,KPGL,≤ 0.2
4,QWST,≤ 0.2
5,KLWL,≤ 0.2
6,YMVR,≤ 0.2
7,KRTM,≤ 0.2
8,IHTR,≤ 0.2
9,DVPG,≤ 0.2
10,KIKT,≤ 0.2
11,HASL,≤ 0.2
12,CGKV,≤ 0.2
13,AKPC,≤ 0.2
14,ATAM,≤ 0.2
15,PCRQ,≤ 0.2
16,NRRM,≤ 0.2
17,IPGQ,≤ 0.2
18,TLYA,≤ 0.2
19,ATQY,≤ 0.2
20,CSCN,≤ 0.2
21,NWGR,≤ 0.2
22,QQNS,≤ 0.2
23,LRVK,≤ 0.2
24,CSHD,≤ 0.2

row,Variant,one-hybrid fitness for binding parS DNA
1,HGAV,≤ 0.2
2,EFRT,≤ 0.2
3,DHWG,≤ 0.2
4,DWQS,≤ 0.2
5,AGNY,≤ 0.2
6,GASI,≤ 0.2
7,MHHY,≤ 0.2
8,SNAG,≤ 0.2
9,WRRT,≤ 0.2
10,FHTG,≤ 0.2
11,DLTR,≤ 0.2
12,LCLI,≤ 0.2
13,NPTT,≤ 0.2
14,NNRW,≤ 0.2
15,FDAY,≤ 0.2
16,DMTC,≤ 0.2
17,TRSQ,≤ 0.2
18,RADF,≤ 0.2
19,SHPG,≤ 0.2
20,MTRA,≤ 0.2
21,AQMF,≤ 0.2
22,TVYF,≤ 0.2
23,LRKG,≤ 0.2
24,RKPM,≤ 0.2

row,Variant,one-hybrid fitness for binding parS DNA
1,LCHR,≤ 0.2
2,TFRW,≤ 0.2
3,KLCR,≤ 0.2
4,YEYV,≤ 0.2
5,QGNS,≤ 0.2
6,HQTD,≤ 0.2
7,NPAR,≤ 0.2
8,SQVL,≤ 0.2
9,CCSQ,≤ 0.2
10,PDYI,≤ 0.2
11,CETR,≤ 0.2
12,MIHW,≤ 0.2
13,INGS,≤ 0.2
14,ECSS,≤ 0.2
15,QIIV,≤ 0.2
16,DRYV,≤ 0.2
17,PNWA,≤ 0.2
18,NMHV,≤ 0.2
19,DEDM,≤ 0.2
20,CALF,≤ 0.2
21,HLDC,≤ 0.2
22,VTPT,≤ 0.2
23,CNFS,≤ 0.2
24,PQHG,≤ 0.2

row,Variant,one-hybrid fitness for binding parS DNA
1,WSAH,≤ 0.2
2,DGCC,≤ 0.2
3,QCWL,≤ 0.2
4,PAHI,≤ 0.2
5,VVHG,≤ 0.2
6,CYTN,≤ 0.2
7,DSFT,≤ 0.2
8,WARS,≤ 0.2
9,PRKM,≤ 0.2
10,TCFG,≤ 0.2
11,NVNI,≤ 0.2
12,LKCC,≤ 0.2
13,APKC,≤ 0.2
14,NLKR,≤ 0.2
15,TRWR,≤ 0.2
16,VESD,≤ 0.2
17,VFVN,≤ 0.2
18,SFPC,≤ 0.2
19,VRLG,≤ 0.2
20,MSSN,≤ 0.2
21,NSTC,≤ 0.2
22,QTQL,≤ 0.2
23,EMES,≤ 0.2
24,RCIH,0.213

row,Variant,one-hybrid fitness for binding parS DNA
1,VHFG,≤ 0.2
2,QMIN,≤ 0.2
3,DWAS,≤ 0.2
4,SNHY,≤ 0.2
5,PGYT,≤ 0.2
6,KRHP,≤ 0.2
7,YKTY,≤ 0.2
8,GSDS,≤ 0.2
9,SLEE,≤ 0.2
10,FHSS,≤ 0.2
11,GGKG,≤ 0.2
12,LPHA,≤ 0.2
13,LDIC,≤ 0.2
14,DVCI,≤ 0.2
15,QPDE,≤ 0.2
16,WLDC,≤ 0.2
17,REEI,≤ 0.2
18,EDAS,≤ 0.2
